Laboratory results taken from the supplement of paper PMC3724861.
This is one part of the list.

Each sequence was assayed on T1, Caupolican (Caup) homeodomain DNA-binding domain (assay: PBM E-score (8-mer, recovered from the published 9-mer minima) (E-score (dimensionless, -0.5 to 0.5)); Drosophila protein; higher = stronger relative binding preference, active = 0.31 or more).
T1 sequence: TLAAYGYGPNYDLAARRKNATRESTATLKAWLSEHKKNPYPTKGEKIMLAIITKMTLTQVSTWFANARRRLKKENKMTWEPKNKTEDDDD
In short: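 An enrichment score, with higher meaning stronger, expresses relative binding preference for each short DNA word. The protein used was Caup's homeodomain DNA-binding domain (residues 214-303), produced by in vitro transcription and translation and tested at 100 nM on custom-designed protein binding microarrays. The 8-mer values were recovered from published 9-mer scores, each equal to the lower of its two constituent 8-mer scores.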

PBM E-score, ≥ 0.1:
AACCAGCT

PBM E-score, ≥ 0.103:
AGAATGAG

PBM E-score, ≥ 0.0179:
AACGGAGT

PBM E-score, ≥ 0.159:
CTATATGC

PBM E-score, ≥ 0.265:
AACAATTA

PBM E-score, inactive:
CAATAACA 0.238
GCCATCCC -0.155
ACTATTCT 0.03
CGTGCTTA 0.0701
ACAGACAC 0.256
GCTCATCA -0.0651
CCTACATC 0.144
ACACCGAT 0.158
AGTTGACA 0.246
CCGGCGTC -0.2
CTCGCGTC -0.0603
CAATATAC 0.151
CCAGATAG -0.0538
AAAGTTAT 0.0955
CGGTATTC 0.0875
CTGCGTGA -0.0361
AAGATTGC -0.00712
GGGTTGCA 0.0238
GGTATGAA 0.0695
CATGCACC 0.0878
CTCGAGTC -0.105
GAGCCCAA -0.0752
ATTATATC 0.158
ATGGAGAC 0.0375
GCTAGCTA -0.112
CGAGGTGC -0.0742
ACGTAAGC -0.0813
TACTAGAA 0.163
GGTTAGAA -0.043
CAGCCATG 0.0498
CGTAACGC -0.0474
GCAGCTCC -0.245
CCCGCTTA -0.134
AGGTCAAG -0.117
CAAGGGTC -0.17
GGCTCTAA -0.0637
AGCAAATA 0.111
AAGCTATA 0.0484
CGAAATAC 0.132
GTTGCGTA 0.0939
AGTAAGAC 0.0795
GTACGAGA 0.0421
TCAGATCA 0.0295
ACATGACC 0.303
GGTGAAAC 0.0128
ATTTCGAA 0.125
CTTGTCCC 0.186
CTTTTATC -0.116
GAAACTCC -0.157
AATGCTAA 0.0817
GGCGATTA -0.05
AGCAAAGG -0.00335
AGTGTGGG -0.143
CAGGCGAC -0.136
GGTTAAGA 0.0292
ACGCAGAG -0.108
CGATTTCC -0.0327
CAGGTCAC -0.141
TAATCTGA 0.0961
ACGCTTTA 0.00556
GCCGTCGC -0.192
CTATCTGA 0.0431
CCCACCGA -0.172
GGCAGATA -0.016
GTGTGAAA 0.0816
ATCGAAGG -0.0662
ACGCTAAG -0.0391
GGACAGGA 0.0585
CGACCATC -0.0645
CATCCACA 0.125
GTCCCACA -0.0729
AGTAACTC 0.0562
AACTTGAG -0.0948
ATGTGCTA 0.0682
ATAGGGGG -0.221
ATAGTGGC -0.0179
CTCACGAC -0.0934
CCCAAAAG -0.172
AAGGCTGG -0.19
AGTGGAGA -0.0688
GTCCCAGA -0.152
CGAACATC 0.279
AGTCTGGC -0.101
TACGCGCA -0.0283
AATACTCA 0.143
ACGACAGT 0.094
CCTCAGAG -0.189
CCCGTGCA -0.0955
GATTGAAA 0.0895
ACATTATG 0.222
AGGTGTGC -0.00906
AGCCTTAG -0.0876
CATAAGCA -0.039
TAACACCA 0.247
CTAGTATC 0.0918
CCGATAAG 0.00966
GATCTAGC -0.0556
AATTTGAA 0.0337
AGCCGAGG -0.125
CGACGCTA -0.0133
AGATCAAT 0.0507
AGGTCTAT 0.049
TCTCGAGA 0.0237
ACCGCAGA -0.078
GCTTATAA -0.0136
CAGCTGGC -0.219
CCAATGGA -0.156
GAAGCATC -0.0727
CGTTGACC 0.023
CTGGAACC -0.156
AGTCAGAT 0.114
CTTAACGC -0.112
ACCCCAGG -0.228
GAGTTAAC 0.12
CCAGGCGC -0.315
CGTGATTA 0.173
AGGCTATG 0.029
CAGTGCGC -0.161
GCTCGTCC -0.0479
GAACATCA 0.259
ACGACGAC -0.0582
ACGTGCGC -0.0723
TAAAAAGA 0.0988
GCCCTATA -0.047
ATCCGGCC -0.201
CTTGACAC 0.141
CATGCTGA 0.146
TTCCCAAA 0.0457
CAACGCCA 0.0121
ACTTCAGG -0.0156
CATACTGG 0.042
GTTCTGTA 0.197
ATACGAGC 0.136
AGCCGCCG -0.232
ATACTGAA 0.0974
AAGGAACG -0.0568
ATCATACG 0.136
GGAACAAA 0.194
GCGACTCA -0.0964
TCACGTGA 0.0495
CTAACTAC 0.102
GTCCCAAA -0.0338
CAGGCTCG -0.119
ACGGCAAT 0.0308
CTTGAGCA -0.0687
CATTTGAC 0.0733
GTAGGACA 0.114
CCGACGGA -0.0881
CCAGGCTA -0.137
CGACTAGA 0.0851
ACTCACCG -0.0975
GCTTACTA 0.0912
ACAACGGG 0.137
AGAATCAC 0.0452
CCACGTCG -0.0926
AATCCATA 0.133
CGCGATAC -0.0891
CTCGTGCA -0.0522
CGGAATCC -0.104
CCTTTCTA -0.0969
GACACAAA 0.203
CGTAGGAC -0.126
AGGCGAGA -0.216
ACCAGGAC 0.14
ACAAGAAA 0.252
CTGCACGC -0.145
AAGCCTAG -0.0444
ACAGATCG 0.0279
CACGTTAA 0.117
AGCTGCGG -0.234
GCGCTATA 0.0266
ATCTGTTG 0.128
TGAGACCA -0.0323
CTTAACAA 0.228
GAAACCCA 0.0044
AGTCCCGG -0.223
AGACAATC 0.0846
AAAGCTCA -0.094
AGGATGAA -0.102
ATGGGCAC -0.0483
GAGCGGGC -0.293
CGTCTGTA 0.156
AGTATAAA 0.113
ACAATGGG 0.0911
GCGCTCAC -0.0718
CCCGACAA 0.142
TACCGGAA 0.0524
CTCGGTAC -0.0165
CCCGCGTA -0.121
AGTAGAGA -0.0115
CTAGGACC -0.127
CCAGCGTA -0.134
CCCTTGGA -0.116
ACTGAAAG 0.023
GGTGTCCA 0.152
GCGTTTCA -0.0787
CGTTACAC 0.183
CTACGCAC -0.0287
ATTACACC 0.259
AACTATCC -0.0674
AATTCTGT 0.0957
GGTGGGAC -0.0958
GCCGAACC -0.2
CTACTTAC 0.0818
CATCTGAC 0.0423
CAATGGCA -0.0588
AGCTATGC -0.0644
AGCCGGGG -0.281
CACATAGC -0.00094
CCTACCCG -0.0868

PBM E-score, ≥ 0.0513:
ACCGCATA

PBM E-score, active:
GTAGTACA 0.346
AACATACT 0.31
ACATGTTA 0.452
ATGTGTAA 0.332
AGAACATA 0.318

PBM E-score, ≥ 0.145:
ATCTCGTA

PBM E-score, ≥ 0.113:
ATCACGAT

PBM E-score, ≥ 0.237:
AACACCTG

PBM E-score, ≥ 0.163:
GAAAATTA
